In all, about 48,000 compounds went through this assay and about 120 (0.25%) were called active. Another 4% or so got no clear call; they are omitted. The call rests on the fitted dose curve; in most records, active means well fitted activation curve with a large enough effect; inconclusive means small, poorly fitted or top-dose-only effect, or another doubt; inactive means no such curve, though single readings can be large or run the other way. This is one part of the list.
Assay: Primary qHTS for Identification of Small Molecule Activators of Huntingtin-Antisense Promoter Activity; further: nearly all actives have a fitted effect of over 55% in size
Settings: HEK293 HTT-AS promoter firefly luciferase reporter (activity 0% = vehicle and -100% = no light), 24 h; series mostly up to 57.5 µM; activity change, positive = activation: at the top concentration
How it was run: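 Firefly luciferase signal from promoter-reporter HEK293 cells was scaled between vehicle (0%) and zero RLU (-100%). Compounds were tested at final concentrations of up to 57.5 uM over 24 h at 37 degrees C. PTC124 at 50 uM final served as control inhibitor.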

Activity change, positive = activation, inactive:
O=C(Nc1ccc(OCc2cc(=O)n3c4c(sc3n2)CCCC4)cc1)c1ccc(F)cc1 -6.3%
COC(=O)Cc1c(C)c2ccc3c(c2oc1=O)CN(Cc1ccc(C)cc1)CO3 -8.22%
Cc1ccccc1-c1noc(CSc2nc(-c3ccc(F)cc3)cc(=O)[nH]2)n1 -13.4%
COc1ccc(-n2nnnc2SCC(=O)NCCc2ccccc2)cc1 -8.3%
CCc1ccccc1NS(=O)(=O)c1ccc2[nH]cc(C(=O)NC3CCCC3)c(=O)c2c1 -36.4%
NC(=O)C1CCN(c2ncnc3c2cnn3-c2cccc(Cl)c2)CC1 -59.1%
CCOc1ccc(CCNC(=O)CCn2c(=O)c3cccn3c3ccc(F)cc32)cc1 -19.1%
CC(C)COc1ccc(C(=O)Nc2onc3c2CCCC3)cc1 -16.6%
Cc1ccc(NC(=O)Cn2nc(C(F)(F)F)c3c2CCC3)cc1C -16.4%
Cc1cccc(CNC(=O)CCCN2C(=O)c3cccnc3Oc3ccccc32)c1 -5.85%
COc1ccc(-c2noc(-c3ccc(NCc4ccco4)c([N+](=O)[O-])c3)n2)cc1OC 0.0894%
CCc1ccc(N2CC(c3nc4ccccc4n3Cc3ccccc3C)CC2=O)cc1 (stereo not drawn) -39%
CCC1Oc2ccc(C)cc2N(CC(=O)NCCc2ccccc2)C1=O (stereo not drawn) -8.71%
CCOC(=O)c1cnc2ccc(OC(F)(F)F)cc2c1Nc1ccccc1C(=O)O -6.09%
Cc1ccc(NC(=O)CCCN2C(=O)COc3ccc(C)cc32)c(Cl)c1 -10.6%
COc1cccc(/C=C/c2nc(C#N)c(N3CCCCCC3)o2)c1 -15%
CCOC(=O)c1cnn2c(C(F)(F)F)cc(-c3ccc(Br)cc3)nc12 3.1%
O=C(Nc1cccc(C(F)(F)F)c1)C1CCN(S(=O)(=O)c2cccc3nsnc23)CC1 -35.1%
COc1ccc(-c2cnc(C)o2)cc1S(=O)(=O)Nc1cccc(C(F)(F)F)c1 -25.6%
COc1ccc(C(=O)CC2(O)C(=O)N(CCc3ccccc3)c3ccc(Br)cc32)cc1OC (stereo not drawn) -30.4%
COc1ccc(-n2nc(C(=O)N3CCN(c4cccc(C)c4)C(C)C3)c3c4ccccc4n(C)c3c2=O)cc1Cl (stereo not drawn) -17.2%
COc1cccc(-n2c(=O)c3c4c(sc3n(Cc3ccccc3C#N)c2=O)CCCC4)c1 7.68%
Cc1ccccc1-c1noc(-c2ccc(NC3CCCC3)c([N+](=O)[O-])c2)n1 -9.38%
O=S(=O)(c1ccc2nc(Nc3ccc(Br)cc3F)ccc2c1)N1CCCC1 -12.2%
CN(C(=O)CSc1nc2ccc(NC(=O)c3ccccc3)cc2s1)c1ccccc1 -26.8%
O=C(CSc1oc(-c2cccs2)nc1S(=O)(=O)c1ccccc1)Nc1ccc(F)cc1 -23.5%
Cc1ccc(C2=NN(CCC(=O)NCCc3cccc(C)c3)C(=O)CC2)cc1 -20.3%
COc1ccc(Cn2c(NCC(C)C)nc3c2c(=O)n(C)c(=O)n3C)cc1 -14.3%
CC(=O)Nc1cccc(-c2nnc(SCC(=O)c3ccc([N+](=O)[O-])cc3)o2)c1 5.31%
COc1ccc(OC)c(CNC(=O)c2cnc(N(C)C)nc2)c1 -5.88%
CCOc1ccccc1/C=C/c1onc(C)c1S(=O)(=O)N1CCC(C(=O)N2CCCCC2)CC1 -4.29%
COc1cc(CN(C(=O)c2ccc(C)cc2)c2ccccn2)cc(OC)c1OC -35.9%
Cc1ccc(-n2nc(C)c3c(C(=O)Nc4ccc(C)cc4Cl)cc(C)nc32)cc1 13.1%
CCOC(=O)CSc1nc(-c2ccc(OC)cc2)cc(C(F)(F)F)c1C#N -17.6%
COc1ccc(NCc2cccn2-c2nnc(N3CCC(C)CC3)s2)c(OC)c1 -80.7%
Cc1cccc(-c2nc(S(=O)(=O)c3ccccc3)c(N3CCN(c4ccccc4)CC3)o2)c1 -4.44%
CSc1ccc(-c2nc3cc(C)ccn3c2Nc2ccc(C)cc2)cc1 19.9%
CCc1ccc(NC(=O)C(=O)NCCc2sc(-c3ccc(C)cc3)nc2C)cc1 -7.04%
O=C(CSc1nc2c(c(=O)[nH]1)CCC2)Nc1cc(C(F)(F)F)ccc1Cl -8.13%
Cn1ccc2c(OCC(=O)NCc3ccc(F)cc3)cccc2c1=O -18.6%
COc1c(Cl)cc(Cl)cc1C(=O)Nc1cccc2cccnc12 3.85%
Cc1ccc(C(=O)c2cn(Cc3ccccc3)c3cc4c(cc3c2=O)OCCO4)cc1 10.5%
CCc1nnc(NC(=O)c2nc(SCc3ccc(F)cc3)ncc2Cl)s1 6.59%
O=C(O)/C=C\C(=O)O 1.45%
CCOc1ccc(OCC)c(NS(=O)(=O)c2ccc3c(c2)CCCN3C(C)=O)c1 -20.9%
CCCCn1c(C2CC(=O)N(c3ccc(OCC)cc3)C2)nc2ccccc21 (stereo not drawn) -9.29%
O=C(OCC1CCCO1)c1ccc2c(c1)N(Cc1c(F)cccc1Cl)C(=O)c1ccccc1S2(=O)=O (stereo not drawn) -20.5%
CCOCCn1c(=NC(=O)c2ccc3c(c2)OCCO3)sc2cc(OCC)ccc21 17.4%
Cc1cc(C)c(NC(=O)c2ccc3nc(C(C)C)oc3c2)c(C)c1 -9.86%
COCC(C)NC(=O)C1=CC(c2ccc3c(c2)OCO3)=NS(=O)(=O)N1C (stereo not drawn) -20%
CCC(C(=O)NC1CCCCC1)n1nc(C)c2sc3ccccc3c2c1=O (stereo not drawn) -3.7%
COc1ccc(S(=O)(=O)N2CCC(c3nnnn3-c3ccccc3)CC2)cc1OC -25.5%
Cc1cccc(S(=O)(=O)c2cn(Cc3ccc(F)cc3)c3cc(N4CCOCC4)c(F)cc3c2=O)c1 -43.1%
Cc1ccc(Cl)cc1N1CCN(C(=O)c2cnc3c(-c4ccc(F)cc4)c(C)nn3c2C)CC1 2.24%
O=C(Cn1cc(SCc2ccc(F)cc2)c2ccccc21)N1CCCC1 16.1%
CCN(CC)S(=O)(=O)c1ccc2c(c1)c(=O)c(C(=O)N1CCN(c3cc(C)ccc3C)CC1)cn2C -26.9%
CC1CCCN(Cc2c(O)ccc3c(=O)c(-c4ccccc4Cl)c(C(F)(F)F)oc23)C1 (stereo not drawn) -7.98%
Cc1ccccc1C(OCCN(C)C)c1ccccc1 (stereo not drawn)
O=C(NC1CCCC1)c1ccc(CSc2nc3cccnc3n2Cc2ccccc2F)cc1 -33.1%
O=C(Cn1c(-c2cccs2)cc2ccccc21)NCCCN1CCN(c2ccc(F)cc2)CC1 -32.5%
Cc1c(I)c(=O)n(-c2ccccc2)n1C -6.35%
Cc1cc(C)c(NS(=O)(=O)c2ccc3c(c2)NC(=O)CCS3)c(C)c1 -23%
O=C(COc1ccc(Cl)cc1)N(Cc1ccco1)c1ccccn1 30.8%
Cc1cccc(Cn2c(CNC(=O)c3ccccc3)nc3ccccc32)c1 -11.8%
Cc1ccn2c(Nc3ccc(C(C)C)cc3)c(-c3ccsc3)nc2c1 21.1%
CC(C)OCCCNC(=O)c1c2c(nc3ccccc13)C(=O)N(C1CCCCC1)C2 -12.8%
CCOC(=O)c1cc(-c2ccccc2)n(CC(=O)Nc2cc(Cl)c(OC)cc2OC)c1C -5.41%
CCCCCOc1ccccc1Cn1c(=O)oc2ccc(C)cc21 -15.1%
Cc1nn(C(C)C(=O)Nc2cccc(F)c2)c(=O)c2c1sc1ccccc12 (stereo not drawn) -21.7%
COCCNC(=O)CCSc1nc(-c2ccc(OC)cc2)cc(C(F)(F)F)n1 -22.2%
Cc1ccc(Nc2c(-c3ccc(N4CCOCC4)cc3)nc3ncccn23)c(C)c1 -9.99%
Cc1ccc(CNC(=O)CC(C)CC2=NS(=O)(=O)c3ccccc3N2)cc1 (stereo not drawn) -22.3%
CCc1ccc(N2CCn3c2nc2c3c(=O)n(C/C=C/c3ccccc3)c(=O)n2C)cc1 -5.02%
COC(=O)C1=C(C)NC(C)=C(C(=O)OCCN(C)Cc2ccccc2)C1c1cccc([N+](=O)[O-])c1 (stereo not drawn) -73.7%
COc1ccc(NC(=O)c2c(NCc3ccc(N(C)C)cc3)sc3c2CCC3)cc1 -0.32%
CCOc1ccccc1NC(=O)N(Cc1ccc(F)cc1)C1CCN(CC)CC1 -11.5%
Cc1ccsc1CN(C(=O)c1oc2ccc(F)cc2c1C)C1CCS(=O)(=O)C1 (stereo not drawn) -33.6%
Cc1ccc(Nc2ncc(C(=O)N3CCN(c4ccc(F)cc4)CC3)c3ccccc23)cc1Cl -21%
CCOc1ccc(-c2nonc2NC(=O)c2oc3cc(C)c(C)cc3c2C)cc1OCC 3.82%
Cc1ccc(NC(=O)C2CCCN2S(=O)(=O)c2cccc3nsnc23)c(C)c1 (stereo not drawn) -18.5%
Cc1ccc(C)c(-n2c3nc(=O)[nH]c(=O)c-3cc3c(C)nn(-c4ccccc4)c32)c1 -10%
CCc1ccc(NC(=O)c2ccc(F)c(S(=O)(=O)N3CCC4(CC3)OCCO4)c2)cc1 -24.8%
COc1cccc(CNS(=O)(=O)c2cc3[nH]c(=O)c(=O)[nH]c3cc2C)c1 -6.74%
Cc1ccc(S(=O)(=O)C(CNC(=O)c2ccc(F)c(F)c2)c2ccco2)cc1 (stereo not drawn) -14.5%
O=C(CSc1oc(-c2ccco2)nc1S(=O)(=O)c1ccc(Br)cc1)c1ccccc1 -2.45%
CCC(=O)C1=C(c2ccc(Cl)cc2)N(C(=O)CC)n2c(C)nnc2S1 -11.3%
CCS(=O)(=O)c1ccc(O)c(Nc2cc(C)nc(SC)n2)c1 -40.7%
CCCCn1c(=O)c2oc3ccccc3c2n(Cc2cccc(F)c2)c1=O -28%
CCC(C)Cn1c(/C=C/c2ccccc2)nc2ccccc21 (stereo not drawn) -8.07%
CCc1nnc2c(Nc3cccc(F)c3)nc3ccc(C(=O)c4ccccc4)cc3n12 -30.2%
CCOC(=O)c1cccc(NC(=O)c2cc3c(=O)n(C)c4ccccc4c3n2C)c1 3.51%
Cc1ccc(CNC(=O)CCN2C(=O)COc3ccc(C)cc32)cc1 -8.34%
Cc1cc(C)cc(NC(=O)c2ccc3c(c2)nnn3C2CCCC2)c1 -25.4%
Cc1ccc(NC2=C(CC(=O)O)C(c3ccc(F)cc3)N(c3ccc(C)cc3)C2=O)cc1 (stereo not drawn) 9.47%
Cc1cncc2cccc(S(=O)(=O)N3CCCN(C(=O)CN)C[C@@H]3C)c12 -0.321%
CC(C)c1cnc2c(c1SCC(=O)Nc1ccc(OC(F)(F)F)cc1)c(=O)n(C)c(=O)n2C -13.6%
CC1CCN(S(=O)(=O)c2nnc(NC(=O)c3ccc(C(C)C)cc3)s2)CC1 -17.8%
O=C(CCCN1C(=O)c2cccnc2Oc2ccc(Cl)cc21)NCc1ccccc1F -22%
